# Measurements taken from the supplement of paper PMC8728848.
# Some of the results follow.
# Legend:
# Experiment in all cases: glycan array binding signal (z-score within array); higher = stronger binding
# Settings in all cases: glycan notation: IUPAC condensed, linker removed
# [1] = target: GlcNAc(b1-3)Gal(b1-4)GlcNAc(b1-3)Gal(b1-4)GlcNAc(b1-3)GalNAc
# Outline: (§1)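 Glycan array data came from 3228 arrays in the Consortium for Functional Glycomics database, and only arrays with an available protein sequence were kept. Glycan names were put into IUPAC-condensed notation, and columns mapping to the same glycan were averaged. The binding signal is a within-array Z-score, averaged across arrays of one protein sequence run at different concentrations or buffers and across linkers. A negative Z-score can be read as non-binding.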
# [2] = target: GlcNAc(b1-3)Gal(b1-4)GlcNAc(b1-3)GalNAc
# Outline: as §1
# [3] = target: GlcNAc(b1-3)Gal(b1-4)GlcNAc(b1-3)[GlcNAc(b1-3)Gal(b1-4)GlcNAc(b1-3)]GalNAc
# Outline: as §1
# [4] = target: GlcNAc(b1-3)Gal(b1-4)GlcNAc(b1-6)[Gal(b1-3)]GalNAc
# Outline: as §1
# [5] = target: GlcNAc(b1-3)Gal(b1-4)GlcNAc(b1-6)[GlcNAc(b1-3)Gal(b1-3)]GalNAc
# Outline: as §1
# [6] = target: GlcNAc(b1-3)Gal(b1-4)GlcNAc(b1-6)[GlcNAc(b1-3)]Gal(b1-4)GlcNAc
# Outline: as §1
# GlcNAc(b1-3)GalNAc = target: GlcNAc(b1-3)GalNAc
# Outline: as §1
# GlcNAc(b1-3)Man = target: GlcNAc(b1-3)Man
# Outline: as §1
# [7] = target: GlcNAc(b1-3)[GlcNAc(b1-4)][GlcNAc(b1-6)]GlcNAc
# Outline: as §1
# [8] = target: GlcNAc(b1-3)[GlcNAc(b1-6)]Gal(b1-4)GlcNAc
# Outline: as §1
# [9] = target: GlcNAc(b1-3)[GlcNAc(b1-6)]GalNAc
# Outline: as §1
# [10] = target: GlcNAc(b1-4)Gal(b1-4)GlcNAc
# Outline: as §1
# GlcNAc(b1-4)GlcNAc = target: GlcNAc(b1-4)GlcNAc
# Outline: as §1
# [11] = target: GlcNAc(b1-4)GlcNAc(b1-4)GlcNAc
# Outline: as §1
# [12] = target: GlcNAc(b1-4)GlcNAc(b1-4)GlcNAc(b1-4)GlcNAc(b1-4)GlcNAc
# Outline: as §1
# [13] = target: GlcNAc(b1-4)GlcNAc(b1-4)GlcNAc(b1-4)GlcNAc(b1-4)GlcNAc(b1-4)GlcNAc
# Outline: as §1
# [14] = target: GlcNAc(b1-4)[GlcNAc(b1-6)]GalNAc
# Outline: as §1
# [15] = target: GlcNAc(b1-6)Gal(b1-4)GlcNAc
# Outline: as §1
# GlcNAc(b1-6)GalNAc = target: GlcNAc(b1-6)GalNAc
# Outline: as §1
# [16] = target: GlcNAc6S(b1-3)Gal(b1-4)GlcNAc
# Outline: as §1
# Kdn(a2-3)Gal(b1-3)GalNAc = target: Kdn(a2-3)Gal(b1-3)GalNAc
# Outline: as §1
# Kdn(a2-3)Gal(b1-3)GlcNAc = target: Kdn(a2-3)Gal(b1-3)GlcNAc
# Outline: as §1
# Kdn(a2-3)Gal(b1-4)Glc = target: Kdn(a2-3)Gal(b1-4)Glc
# Outline: as §1
# Kdn(a2-3)Gal(b1-4)GlcNAc = target: Kdn(a2-3)Gal(b1-4)GlcNAc
# Outline: as §1
# [17] = target: Kdn(a2-3)Gal(b1-4)[Fuc(a1-3)]GlcNAc
# Outline: as §1
# Kdn(a2-6)Gal(b1-4)GlcNAc = target: Kdn(a2-6)Gal(b1-4)GlcNAc
# Outline: as §1
# [18] = target: Man(a1-2)Man(a1-2)Man(a1-3)Man
# Outline: as §1
# [19] = target: Man(a1-2)Man(a1-2)Man(a1-6)[Man(a1-3)]Man
# Outline: as §1
# Man(a1-2)Man(a1-3)Man = target: Man(a1-2)Man(a1-3)Man
# Outline: as §1
# [20] = target: Man(a1-2)Man(a1-3)[Man(a1-2)Man(a1-6)]Man
# Outline: as §1
binder,measurement,setting,value
PX9896A-bth-573-26-573 (Bacteroides thetaiotaomicron) (protein) ETNNLKTKEDMYKYFGTSKSMLTHVYSYMPQGYQLFATSGGIFTEDRYSMRDCASDDGEFGAYADNIQNTNNGNWSPIKTYDDSWTLYRGIRAANSFIAEIAQVDFTRYEHDGQYTNWMKQLKYFPYEARVLRAHYFFELARRYGDIAMPLEVLTEEEANTIGKTPFSEVISFIVSECDDAANNLPDSYVNEPGAEIGRVTKGFAMAVKSKALLYAASKLHNPSMDTELWKKSAKAAIDIINTGLYSLDPQESANNLDSKEVVLMRINGDDSDFEMFNLPLRMTAGTRTSSLIPYSNYPSQNLVDAFETVNGYKVTLENTGWVCEDPAFDPQSPYENRDKRFYRAILANGMSFKDYTIETFKGGADDGIVSQGGSPTGYFLRKYIQEATSFEPGKEAVSKHHWVIYRYAETLLTYAESMVNAFNDVNYTDETYKYSALWAINEVRKNADMPLIPSMGKDEFMERLYNEWRVEFAFEDHRFWDVRRWKIADTTQRELYGVKIEKQADGTFNFYKNLYETRNWRDCMYLYPIPQSELYKNTNLNPQNTGW,glycan array binding signal (z-score),[1],0.762
same,glycan array binding signal (z-score),[2],-0.039
same,glycan array binding signal (z-score),[3],-0.155
same,glycan array binding signal (z-score),[4],-0.449
same,glycan array binding signal (z-score),[5],-0.058
same,glycan array binding signal (z-score),[6],-0.532
same,glycan array binding signal (z-score),GlcNAc(b1-3)GalNAc,-0.418
same,glycan array binding signal (z-score),GlcNAc(b1-3)Man,-0.375
same,glycan array binding signal (z-score),[7],-0.364
same,glycan array binding signal (z-score),[8],-0.58
same,glycan array binding signal (z-score),[9],-0.616
same,glycan array binding signal (z-score),[10],-0.691
same,glycan array binding signal (z-score),GlcNAc(b1-4)GlcNAc,-0.169
same,glycan array binding signal (z-score),[11],0.173
same,glycan array binding signal (z-score),[12],-0.224
same,glycan array binding signal (z-score),[13],-0.604
same,glycan array binding signal (z-score),[14],-0.509
same,glycan array binding signal (z-score),[15],-1.22
same,glycan array binding signal (z-score),GlcNAc(b1-6)GalNAc,-0.811
same,glycan array binding signal (z-score),[16],0.875
same,glycan array binding signal (z-score),Kdn(a2-3)Gal(b1-3)GalNAc,0.1
same,glycan array binding signal (z-score),Kdn(a2-3)Gal(b1-3)GlcNAc,-0.533
same,glycan array binding signal (z-score),Kdn(a2-3)Gal(b1-4)Glc,0.496
same,glycan array binding signal (z-score),Kdn(a2-3)Gal(b1-4)GlcNAc,-0.384
same,glycan array binding signal (z-score),[17],-0.25
same,glycan array binding signal (z-score),Kdn(a2-6)Gal(b1-4)GlcNAc,0.126
same,glycan array binding signal (z-score),[18],-0.707
same,glycan array binding signal (z-score),[19],0.075
same,glycan array binding signal (z-score),Man(a1-2)Man(a1-3)Man,-0.062
same,glycan array binding signal (z-score),[20],-0.577
